Source: a compilation of properties of binary mixtures (doi:10.1016/j.fluid.2012.10.004)
The densities may have been worked out from excess volumes.

Experiment: xn = mol fraction of the nth substance listed
Conditions: 313.15 K, 101 kPa

Row | SMILES | mass density (x2 = 0.0525) [kg/m3] | mass density (x2 = 0.0947) [kg/m3] | mass density (x2 = 0.3802) [kg/m3] | mass density (x2 = 0.4906) [kg/m3] | mass density (x2 = 0.6982) [kg/m3] | mass density (x2 = 0.8939) [kg/m3] | mass density (x2 = 0.0504) [kg/m3] | mass density (x2 = 0.1252) [kg/m3] | mass density (x2 = 0.2309) [kg/m3] | mass density (x2 = 0.3429) [kg/m3] | mass density (x2 = 0.5636) [kg/m3] | mass density (x2 = 0.6495) [kg/m3] | mass density (x2 = 0.7497) [kg/m3] | mass density (x2 = 0.839) [kg/m3]
1 | CCCCCC[n+]1ccn(C)c1.O=S(=O)([O-])C(F)(F)F + CCO | 1219.8 | 1214.6 | 1170.7 | 1144.9 | 1071.5 | 931.5 |  |  |  |  |  |  |  | 
2 | CCCn1cc[n+](C)c1.O=S(=O)([N-]S(=O)(=O)C(F)(F)F)C(F)(F)F + CCO |  |  |  |  |  |  | 1451.2 | 1438 | 1417.4 | 1390 | 1312.1 | 1265.8 | 1194.3 | 1101.4
